# Assay results: the supplement of paper PMC8728848
# The other results are listed elsewhere or left out.
# B1: SSR1 (Sclerotium rolfsii), A0A0M3KL30 (protein)
# chain: TYKITVRVYQTNPDAFFHPVEKTVWKYANGGTWTITDDQHVLTMGGSGTSGTLRFHADNGESFTATFGVHNYKRWCDIVTNLAADETGMVINQQYYSQKNREEARERQLSNYQVKNAKGRNFQIVYTEAEGNDLHANLIIG
# How the values were obtained:
# Assay in all cases: glycan array binding signal (z-score within array); higher = stronger binding
# Conditions in all cases: glycan notation: IUPAC condensed, linker removed
# [1] = target: Fuc(a1-2)[GalNAc(b1-3)]Gal
# In short: (§1)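 The binding signal is a Z-score computed within each array. Data were drawn from 3228 arrays in the Consortium for Functional Glycomics database, restricted to those with a known protein sequence. Scores were averaged over arrays of the same protein sequence at different concentrations or buffers, and over linkers, and negative values can be taken as non-binding.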
# [2] = target: Fuc(a1-3)GlcNAc
# In short: as §1
# [3] = target: Fuc(a1-3)[Gal(b1-4)]Glc6S
# In short: as §1
# [4] = target: Fuc(a1-3)[Gal(b1-4)]GlcNAc
# In short: as §1
# [5] = target: Fuc(a1-3)[Gal(b1-4)]GlcNAc(b1-2)Man
# In short: as §1
# [6] = target: Fuc(a1-3)[Gal(b1-4)]GlcNAc(b1-2)Man(a1-3)[Fuc(a1-3)[Gal(b1-4)]GlcNAc(b1-2)Man(a1-6)]Man(b1-4)GlcNAc(b1-4)GlcNAc
# In short: as §1
# [7] = target: Fuc(a1-3)[Gal(b1-4)]GlcNAc(b1-2)Man(a1-3)[Fuc(a1-3)[Gal(b1-4)]GlcNAc(b1-2)Man(a1-6)]Man(b1-4)GlcNAc(b1-4)[Fuc(a1-6)]GlcNAc
# In short: as §1
# [8] = target: Fuc(a1-3)[Gal(b1-4)]GlcNAc(b1-3)Gal(b1-3)[Fuc(a1-4)]GlcNAc
# In short: as §1
# [9] = target: Fuc(a1-3)[Gal(b1-4)]GlcNAc(b1-3)Gal(b1-4)[Fuc(a1-3)]GlcNAc
# In short: as §1
# [10] = target: Fuc(a1-3)[Gal(b1-4)]GlcNAc(b1-3)Gal(b1-4)[Fuc(a1-3)]GlcNAc(b1-3)Gal(b1-4)[Fuc(a1-3)]GlcNAc
# In short: as §1
# [11] = target: Fuc(a1-3)[Gal(b1-4)]GlcNAc(b1-3)GalNAc
# In short: as §1
# [12] = target: Fuc(a1-3)[Gal(b1-4)]GlcNAc(b1-6)GalNAc
# In short: as §1
# [13] = target: Fuc(a1-3)[Gal(b1-4)]GlcNAc(b1-6)[Gal(b1-3)GlcNAc(b1-3)]Gal(b1-4)Glc
# In short: as §1
# [14] = target: Fuc(a1-3)[Gal(b1-4)]GlcNAc6S
# In short: as §1
# [15] = target: Fuc(a1-3)[Gal3S(b1-4)]Glc
# In short: as §1
# [16] = target: Fuc(a1-3)[Gal3S(b1-4)]GlcNAc
# In short: as §1
# [17] = target: Fuc(a1-3)[Gal3S(b1-4)]GlcNAc6S
# In short: as §1
# [18] = target: Fuc(a1-3)[GalNAc(b1-4)]GlcNAc
# In short: as §1
# [19] = target: Fuc(a1-3)[GalNAc(b1-4)]GlcNAc6S
# In short: as §1
# [20] = target: Fuc(a1-4)GlcNAc
# In short: as §1
# [21] = target: Fuc(b1-3)GlcNAc
# In short: as §1
# [22] = target: Gal(a1-2)Gal
# In short: as §1
# [23] = target: Gal(a1-3)Gal
# In short: as §1
# [24] = target: Gal(a1-3)Gal(b1-3)GlcNAc
# In short: as §1
# [25] = target: Gal(a1-3)Gal(b1-3)GlcNAc(b1-2)Man
# In short: as §1
# [26] = target: Gal(a1-3)Gal(b1-3)GlcNAc(b1-2)Man(a1-3)[Gal(a1-3)Gal(b1-3)GlcNAc(b1-2)Man(a1-6)]Man(b1-4)GlcNAc(b1-4)GlcNAc
# In short: as §1
# [27] = target: Gal(a1-3)Gal(b1-3)GlcNAc(b1-3)GalNAc
# In short: as §1
# [28] = target: Gal(a1-3)Gal(b1-3)GlcNAc(b1-6)GalNAc
# In short: as §1
# [29] = target: Gal(a1-3)Gal(b1-3)[Fuc(a1-4)]GlcNAc(b1-2)Man(a1-3)[Gal(a1-3)Gal(b1-3)[Fuc(a1-4)]GlcNAc(b1-2)Man(a1-6)]Man(b1-4)GlcNAc(b1-4)GlcNAc
# In short: as §1
# [30] = target: Gal(a1-3)Gal(b1-4)Glc
# In short: as §1
# [31] = target: Gal(a1-3)Gal(b1-4)GlcNAc
# In short: as §1
# [32] = target: Gal(a1-3)Gal(b1-4)GlcNAc(b1-2)Man
# In short: as §1
# [33] = target: Gal(a1-3)Gal(b1-4)GlcNAc(b1-2)Man(a1-3)[Gal(a1-3)Gal(b1-4)GlcNAc(b1-2)Man(a1-6)]Man(b1-4)GlcNAc(b1-4)GlcNAc
# In short: as §1
# [34] = target: Gal(a1-3)Gal(b1-4)GlcNAc(b1-3)GalNAc
# In short: as §1
# [35] = target: Gal(a1-3)Gal(b1-4)GlcNAc(b1-6)GalNAc
# In short: as §1
# [36] = target: Gal(a1-3)Gal(b1-4)[Fuc(a1-3)]GlcNAc
# In short: as §1
# [37] = target: Gal(a1-3)Gal(b1-4)[Fuc(a1-3)]GlcNAc(b1-2)Man(a1-3)[Gal(a1-3)Gal(b1-4)[Fuc(a1-3)]GlcNAc(b1-2)Man(a1-6)]Man(b1-4)GlcNAc(b1-4)GlcNAc
# In short: as §1
# [38] = target: Gal(a1-3)GalNAc
# In short: as §1
# [39] = target: Gal(a1-3)[Gal(a1-4)]Gal(b1-4)GlcNAc
# In short: as §1
# [40] = target: Gal(a1-4)Gal(b1-3)GlcNAc(b1-2)Man(a1-3)[Gal(a1-4)Gal(b1-3)GlcNAc(b1-2)Man(a1-6)]Man(b1-4)GlcNAc(b1-4)GlcNAc
# In short: as §1
# [41] = target: Gal(a1-4)Gal(b1-4)Glc
# In short: as §1
# [42] = target: Gal(a1-4)Gal(b1-4)GlcNAc
# In short: as §1
# [43] = target: Gal(a1-4)Gal(b1-4)GlcNAc(b1-2)Man(a1-3)[Gal(a1-4)Gal(b1-4)GlcNAc(b1-2)Man(a1-6)]Man(b1-4)GlcNAc(b1-4)GlcNAc
# In short: as §1
# [44] = target: Gal(a1-4)Gal(b1-4)GlcNAc(b1-3)Gal(b1-4)Glc
# In short: as §1
# [45] = target: Gal(a1-4)GlcNAc
# In short: as §1
binder,measurement,setting,value
B1,glycan array binding signal (z-score),[1],-0.304
same,glycan array binding signal (z-score),[2],-0.345
same,glycan array binding signal (z-score),[3],-0.347
same,glycan array binding signal (z-score),[4],-0.316
same,glycan array binding signal (z-score),[5],-0.339
same,glycan array binding signal (z-score),[6],-0.34
same,glycan array binding signal (z-score),[7],-0.33
same,glycan array binding signal (z-score),[8],-0.32
same,glycan array binding signal (z-score),[9],-0.32
same,glycan array binding signal (z-score),[10],-0.348
same,glycan array binding signal (z-score),[11],-0.338
same,glycan array binding signal (z-score),[12],-0.33
same,glycan array binding signal (z-score),[13],-0.353
same,glycan array binding signal (z-score),[14],-0.332
same,glycan array binding signal (z-score),[15],-0.333
same,glycan array binding signal (z-score),[16],-0.314
same,glycan array binding signal (z-score),[17],-0.323
same,glycan array binding signal (z-score),[18],-0.327
same,glycan array binding signal (z-score),[19],-0.345
same,glycan array binding signal (z-score),[20],-0.281
same,glycan array binding signal (z-score),[21],-0.33
same,glycan array binding signal (z-score),[22],-0.325
same,glycan array binding signal (z-score),[23],-0.34
same,glycan array binding signal (z-score),[24],-0.345
same,glycan array binding signal (z-score),[25],-0.345
same,glycan array binding signal (z-score),[26],-0.301
same,glycan array binding signal (z-score),[27],-0.33
same,glycan array binding signal (z-score),[28],0.063
same,glycan array binding signal (z-score),[29],-0.311
same,glycan array binding signal (z-score),[30],-0.335
same,glycan array binding signal (z-score),[31],-0.338
same,glycan array binding signal (z-score),[32],-0.345
same,glycan array binding signal (z-score),[33],-0.321
same,glycan array binding signal (z-score),[34],0.577
same,glycan array binding signal (z-score),[35],0.045
same,glycan array binding signal (z-score),[36],-0.338
same,glycan array binding signal (z-score),[37],-0.308
same,glycan array binding signal (z-score),[38],-0.251
same,glycan array binding signal (z-score),[39],-0.338
same,glycan array binding signal (z-score),[40],-0.352
same,glycan array binding signal (z-score),[41],-0.335
same,glycan array binding signal (z-score),[42],-0.332
same,glycan array binding signal (z-score),[43],-0.336
same,glycan array binding signal (z-score),[44],-0.35
same,glycan array binding signal (z-score),[45],-0.348
